Results are given in words; binding and its absence hold for the method and conditions named. For some assays here: In cells and extracts the contact can be indirect. Some entries that bind do so weakly or less than the wild type. For some assays here: Tags and fused reporters may be left off the sequences shown.

The target of assay [1] is T1, AMT1;1-Cub-PLV (Arabidopsis thaliana) (UniProt P54144).
T1 sequence: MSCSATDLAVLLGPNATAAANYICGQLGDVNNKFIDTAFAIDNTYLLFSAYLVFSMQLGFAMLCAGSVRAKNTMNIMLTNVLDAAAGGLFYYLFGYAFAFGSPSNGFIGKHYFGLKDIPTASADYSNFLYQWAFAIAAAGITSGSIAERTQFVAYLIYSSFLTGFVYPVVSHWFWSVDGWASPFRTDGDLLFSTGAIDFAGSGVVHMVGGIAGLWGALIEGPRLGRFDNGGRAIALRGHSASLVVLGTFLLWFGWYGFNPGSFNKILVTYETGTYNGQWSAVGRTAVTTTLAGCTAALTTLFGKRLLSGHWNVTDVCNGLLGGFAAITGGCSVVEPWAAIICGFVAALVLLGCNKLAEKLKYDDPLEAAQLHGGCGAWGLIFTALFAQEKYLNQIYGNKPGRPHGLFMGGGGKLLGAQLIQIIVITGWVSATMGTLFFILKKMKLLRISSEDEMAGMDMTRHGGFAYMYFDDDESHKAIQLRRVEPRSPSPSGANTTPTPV
Kind of assay: two-hybrid; split-ubiquitin system in yeast; AMT-Cub-PLV as bait, NubG-CIPK as prey; growth on SD-Trp -Leu -His, X-gal staining, filter and quantitative beta-galactosidase assays.

Assay [2] deals with T2, AMT1;2-Cub (Arabidopsis thaliana) (UniProt Q9ZPJ8).
T2 sequence: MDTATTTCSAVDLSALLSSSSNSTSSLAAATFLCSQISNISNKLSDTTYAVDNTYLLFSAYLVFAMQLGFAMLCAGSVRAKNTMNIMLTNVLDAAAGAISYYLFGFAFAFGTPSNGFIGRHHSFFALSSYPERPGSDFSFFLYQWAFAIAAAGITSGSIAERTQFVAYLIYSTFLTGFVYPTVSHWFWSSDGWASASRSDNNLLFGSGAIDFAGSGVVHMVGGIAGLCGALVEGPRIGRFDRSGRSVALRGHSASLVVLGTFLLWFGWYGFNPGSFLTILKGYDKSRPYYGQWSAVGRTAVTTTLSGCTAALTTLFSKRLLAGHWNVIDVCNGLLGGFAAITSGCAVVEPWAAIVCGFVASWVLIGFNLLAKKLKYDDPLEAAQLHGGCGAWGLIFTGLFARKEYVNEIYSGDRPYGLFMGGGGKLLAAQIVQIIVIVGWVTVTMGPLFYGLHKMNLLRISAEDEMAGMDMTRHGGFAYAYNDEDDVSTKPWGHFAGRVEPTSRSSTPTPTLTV
Described as above.

Assay [3] concerns the target T3, AMT1;3-Cub (Arabidopsis thaliana) (UniProt Q9SQH9).
T3 sequence: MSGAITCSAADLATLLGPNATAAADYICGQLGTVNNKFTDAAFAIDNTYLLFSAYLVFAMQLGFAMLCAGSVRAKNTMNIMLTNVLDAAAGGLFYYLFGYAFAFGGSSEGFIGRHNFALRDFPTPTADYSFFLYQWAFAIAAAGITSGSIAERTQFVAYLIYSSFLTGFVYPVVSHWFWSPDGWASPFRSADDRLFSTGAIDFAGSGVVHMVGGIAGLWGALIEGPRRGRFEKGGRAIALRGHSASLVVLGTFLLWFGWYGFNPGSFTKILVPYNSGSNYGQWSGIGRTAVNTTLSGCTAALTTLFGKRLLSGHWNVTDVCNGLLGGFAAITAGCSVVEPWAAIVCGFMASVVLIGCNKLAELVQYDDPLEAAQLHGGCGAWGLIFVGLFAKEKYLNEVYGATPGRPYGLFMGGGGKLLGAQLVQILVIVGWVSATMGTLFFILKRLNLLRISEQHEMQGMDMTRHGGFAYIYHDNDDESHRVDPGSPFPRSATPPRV
The description is as above.

Assay [4] addresses T4, nYFP-AMT1;1 (Arabidopsis thaliana) (UniProt P54144).
T4 sequence: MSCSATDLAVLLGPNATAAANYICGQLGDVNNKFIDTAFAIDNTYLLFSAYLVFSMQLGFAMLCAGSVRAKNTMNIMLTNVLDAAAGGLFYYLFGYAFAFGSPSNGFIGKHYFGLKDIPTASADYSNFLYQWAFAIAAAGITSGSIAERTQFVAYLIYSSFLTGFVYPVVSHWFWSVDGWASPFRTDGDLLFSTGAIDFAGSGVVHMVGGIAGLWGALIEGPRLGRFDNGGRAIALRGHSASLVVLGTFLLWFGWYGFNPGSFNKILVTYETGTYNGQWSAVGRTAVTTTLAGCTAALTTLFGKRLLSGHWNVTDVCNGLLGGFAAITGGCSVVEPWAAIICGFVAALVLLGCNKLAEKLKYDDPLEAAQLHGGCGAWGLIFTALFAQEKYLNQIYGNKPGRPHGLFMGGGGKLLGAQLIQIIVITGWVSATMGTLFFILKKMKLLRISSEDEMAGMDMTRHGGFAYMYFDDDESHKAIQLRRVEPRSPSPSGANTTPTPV
Kind of assay: split reporter; split-fluorescent protein assay (nYFP + cCFP, reconstituted YFP fluorescence) in transiently transformed N. benthamiana leaves, confocal microscopy 36 to 48 h after infiltration.

B1: NubG-CIPK19 (enzyme, UniProt Q9FJ55 1-483)
chain: MADLLRKVKSIKKKQDQSNHQALILGKYEMGRLLGHGTFAKVYLARNAQSGESVAIKVIDKEKVLKSGLIAHIKREISILRRVRHPNIVQLFEVMATKSKIYFVMEYVKGGELFNKVAKGRLKEEMARKYFQQLISAVSFCHFRGVYHRDLKPENLLLDENGNLKVSDFGLSAVSDQIRQDGLFHTFCGTPAYVAPEVLARKGYDGAKVDIWSCGVILFVLMAGFLPFHDRNVMAMYKKIYRGDFRCPRWFPVEINRLLIRMLETKPERRFTMPDIMETSWFKKGFKHIKFYVEDDHQLCNVADDDEIESIESVSGRSSTVSEPEDFESFDGRRRGGSMPRPASLNAFDLISFSPGFDLSGLFEDDGEGSRFVSGAPVGQIISKLEEIARIVSFTVRKKDCKVSLEGSREGSMKGPLSIAAEIFELTPALVVVEVKKKGGDKMEYDEFCNKELKPKLQNLSSENGQRVSGSRSLPSFLLSDTD
Turning to B1, the binding result in assay [1] is on record as “no binding”.

B2: NubG-CIPK15 (enzyme, UniProt P92937 1-421)
chain: MEKKGSVLMLRYEVGKFLGQGTFAKVYHARHLKTGDSVAIKVIDKERILKVGMTEQIKREISAMRLLRHPNIVELHEVMATKSKIYFVMEHVKGGELFNKVSTGKLREDVARKYFQQLVRAVDFCHSRGVCHRDLKPENLLLDEHGNLKISDFGLSALSDSRRQDGLLHTTCGTPAYVAPEVISRNGYDGFKADVWSCGVILFVLLAGYLPFRDSNLMELYKKIGKAEVKFPNWLAPGAKRLLKRILDPNPNTRVSTEKIMKSSWFRKGLQEEVKESVEEETEVDAEAEGNASAEKEKKRCINLNAFEIISLSTGFDLSGLFEKGEEKEEMRFTSNREASEITEKLVEIGKDLKMKVRKKEHEWRVKMSAEATVVEAEVFEIAPSYHMVVLKKSGGDTAEYKRVMKESIRPALIDFVLAWH
Turning to B2, the binding result in assay [1], in assay [2] and in assay [3] was “binds” in each case.

B3: CIPK15-cCFP (enzyme, UniProt P92937 1-421)
chain: MEKKGSVLMLRYEVGKFLGQGTFAKVYHARHLKTGDSVAIKVIDKERILKVGMTEQIKREISAMRLLRHPNIVELHEVMATKSKIYFVMEHVKGGELFNKVSTGKLREDVARKYFQQLVRAVDFCHSRGVCHRDLKPENLLLDEHGNLKISDFGLSALSDSRRQDGLLHTTCGTPAYVAPEVISRNGYDGFKADVWSCGVILFVLLAGYLPFRDSNLMELYKKIGKAEVKFPNWLAPGAKRLLKRILDPNPNTRVSTEKIMKSSWFRKGLQEEVKESVEEETEVDAEAEGNASAEKEKKRCINLNAFEIISLSTGFDLSGLFEKGEEKEEMRFTSNREASEITEKLVEIGKDLKMKVRKKEHEWRVKMSAEATVVEAEVFEIAPSYHMVVLKKSGGDTAEYKRVMKESIRPALIDFVLAWH
As to B3, the binding result in assay [4] is listed as “binds”.

The record behind these values is PMC7737296.
